Measurements published in PubChem BioAssay AID360 (National Center for Advancing Translational Sciences (NCATS), 2006).
The campaign covered roughly 48,000 compounds. About 550 (1.1%) were called active. Roughly 4% stayed inconclusive and do not appear here. No stated cut-off is given here; in the data, active means potency below about 15 µM; inconclusive means mostly about 16 µM to 33 µM; inactive means weaker than that. The list shows a part of the results.

The compounds below were run against Lysosomal acid glucosylceramidase (Homo sapiens) (UniProt P04062) (assay: Glucocerebrosidase). Details: purified enzyme, resorufin glucoside fluorescence (screen aimed at inhibitors), 20 min; series mostly up to 77 µM.
In short: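 Wild-type enzyme at 0.2 nM final in 50mM citric acid/KH2PO4, 10mM sodium taurocholate, 0.01% tween-20, pH 5.9, with resorufin beta-D-glucopyranoside at 30 uM final. Compounds titrated, 20 min at RT, red fluorescence read; AC50 from titration.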
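Further: the screen sought inhibitors.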
Potency means the concentration at half of the fitted maximal effect.

Chain of UniProt P04062 (P04062 whole entry, looked up): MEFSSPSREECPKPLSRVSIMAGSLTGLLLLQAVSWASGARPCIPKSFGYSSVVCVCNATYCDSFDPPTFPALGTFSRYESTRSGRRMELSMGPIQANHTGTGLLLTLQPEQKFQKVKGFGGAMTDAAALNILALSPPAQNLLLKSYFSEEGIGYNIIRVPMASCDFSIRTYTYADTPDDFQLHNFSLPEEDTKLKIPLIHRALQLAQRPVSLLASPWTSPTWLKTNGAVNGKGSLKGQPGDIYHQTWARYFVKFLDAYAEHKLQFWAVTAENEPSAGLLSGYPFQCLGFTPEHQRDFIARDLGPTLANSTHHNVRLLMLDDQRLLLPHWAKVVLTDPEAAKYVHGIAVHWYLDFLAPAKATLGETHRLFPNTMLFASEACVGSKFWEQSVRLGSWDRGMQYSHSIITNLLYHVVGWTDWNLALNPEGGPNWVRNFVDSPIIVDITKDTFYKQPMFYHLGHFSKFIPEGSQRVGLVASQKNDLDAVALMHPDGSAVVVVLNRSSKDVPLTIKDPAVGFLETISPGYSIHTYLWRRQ

Potency, inactive:
CCn1c(=O)cc(SCC(=O)N2CCN(c3ccccc3OC)CC2)c2ccccc21 > 76.9 µM
CC(=O)c1cc2c(cc1NC(=O)CCc1ccccc1)OCO2 > 76.9 µM
Cc1ccc(-n2nc3c(c2NC(=O)c2ccc4c(c2)OCO4)CSC3)c(C)c1 > 76.9 µM
Cc1cccc(N2CCN(C(=O)CSCc3c(C)noc3C)CC2)c1C > 76.9 µM
CC(C)Oc1ccc(NC(N)=O)cc1 > 76.9 µM
COc1ccc(C2=C(O)C(C)N(c3ccccc3)C2=N)cc1OC (stereo not drawn) > 76.9 µM
Cc1cc(N2CCC3(CC2)OCCO3)n2nc(C)c(-c3ccc(Cl)cc3)c2n1 > 76.9 µM
O=C(O)C1CCCCC1C(=O)Nc1ccc2c(c1)CCC2 (stereo not drawn) > 76.9 µM
CCOC(=O)c1c(NC(=O)Cn2c(C)nc3ccccc32)sc2c1CCC2 > 76.9 µM
CCCCC(=O)Nc1ccc(Cl)cn1 > 76.9 µM
O=C(CC(NS(=O)(=O)c1ccc(Cl)cc1)c1ccco1)NCc1cccnc1 (stereo not drawn) > 76.9 µM
Cc1cc(OCC(=O)NCCN2CCOCC2)ccc1Br > 76.9 µM
CCCCOc1ccccc1NC(=O)CSc1nnnn1C(C)(C)C > 76.9 µM
COC(=O)c1cn(NC(=O)CC2CCCCC2)c(=O)c2ccccc12 > 76.9 µM
CCOCCCNC(=O)C1CCC(=O)N1CCc1ccccc1 (stereo not drawn) > 76.9 µM
COc1nc(N)nc(CC(=O)C2CC2)n1 > 76.9 µM
CCn1c2ccccc2c2cc(C3N=C(N)Nc4nc5ccccc5n43)ccc21 (stereo not drawn) > 76.9 µM
CC(C)(C)C(=O)c1no[n+]([O-])c1/C(=N/O)C(C)(C)C
CCN1/C(=C/C(C)=O)Sc2ccc(OC)cc21 > 76.9 µM
CCOC(=O)C1CCCN(C(=O)CNS(=O)(=O)c2ccc(Br)s2)C1 (stereo not drawn) > 76.9 µM
CCOc1ccc(S(=O)(=O)Nc2ccc(Cl)cn2)c(C)c1C > 76.9 µM
O=C(O)c1ccccc1C(=O)N1CCN(c2ccccc2)CC1 > 76.9 µM
COc1ccccc1NC(=O)Nc1ccc2c(c1)OCCO2 > 76.9 µM
CCc1cc2c(NCC3CCCO3)ncnc2s1 (stereo not drawn) > 76.9 µM
COCCN(C(=O)COc1ccccc1)c1nnc(-c2cccnc2)s1 > 76.9 µM
CCCCC(c1nnnn1CCOC)N1CCN(c2cccc(OC)c2)CC1 (stereo not drawn) > 76.9 µM
O=S(=O)(NCc1ccccc1Cl)c1cnc[nH]1 > 76.9 µM
O=C(c1cccc(-n2cnnn2)c1)N1CCOCC1 > 76.9 µM
COCC(=O)NC1CCN(C(=O)NCc2ccccc2)CC1 > 76.9 µM
COc1ccc(NC(C)=O)cc1NC(C)C(=O)Nc1ccccc1F (stereo not drawn) > 76.9 µM
CCOc1cc(C(=O)Nc2ccon2)cc(OCC)c1OCC > 76.9 µM
O=C(CCc1ccccc1)Nc1nc2ccc(S(=O)(=O)N3CCOCC3)cc2s1 > 76.9 µM
COC(=O)CSc1cc(C(=O)c2nccn2C)c2ccccc2n1 > 76.9 µM
Cc1cc(C)c(S(N)(=O)=O)c(C)c1-n1cnnn1 > 76.9 µM
Cc1ccc(S(=O)(=O)NC(=O)NCc2ccccn2)cc1 > 76.9 µM
O=C(NC1CCS(=O)(=O)C1)C1CCCCN1S(=O)(=O)c1ccc(Cl)cc1 (stereo not drawn) > 76.9 µM
COc1ccc(NC(=O)N(CCN2CCCC2)Cc2cc3cc(OC)c(OC)cc3[nH]c2=O)cc1 > 76.9 µM
O=C(c1ccccc1)c1ccccc1C(=O)N1CCCC1 > 76.9 µM
CCOC(=O)C1C(=O)CC(C)(O)C(C(=O)OCC)C1c1ccc(C)s1 (stereo not drawn) > 76.9 µM
COc1cccc(C(=O)N(Cc2cc3cc(C)ccc3[nH]c2=O)C(C)C)c1 > 76.9 µM
COc1ccc(NC(=O)c2cncc(Br)c2)c(S(=O)(=O)N2CCOCC2)c1 > 76.9 µM
CCOc1nc(-c2ccc(C)cc2)ccc1-c1noc(-c2cccnc2)n1 > 76.9 µM
CCC(=O)Nc1nnc(SCC(=O)Nc2ccc(F)cc2)s1 > 76.9 µM
Cc1ccccc1N(CC(=O)NCc1ccncc1)S(C)(=O)=O > 76.9 µM
CC1=C(C(N)=O)C(c2ccc(Cl)cc2Cl)n2ncnc2N1 (stereo not drawn) > 76.9 µM
Cc1ccc(-c2nnn(CC(=O)N3CCN(c4ccccc4)CC3)n2)o1 > 76.9 µM
Cc1ccc(CC23CN4CCN(CC(C4)C2O)C3)c(C)c1 (stereo not drawn) > 76.9 µM
CCOC(=O)N1CCC(Nc2ncnc3c2cnn3-c2ccc(Cl)cc2)CC1 > 76.9 µM
Cc1nnc(SCC(=O)Nc2ccc(Br)cn2)[nH]c1=O > 76.9 µM
CCOC(=O)CCCCC(=O)c1[nH]c(=O)[nH]c1Cn1cnc2ccccc21 > 76.9 µM
CSc1c(C#N)c(N)c(C#N)c2c1COC(C)(C)C2 > 76.9 µM
COc1ccc(S(=O)(=O)Nc2cc(C)ccc2OC)cc1C > 76.9 µM
O=c1c2[nH]c3ccc(F)cc3c2ncn1CCN1CCOCC1 > 76.9 µM
CCOC(=O)N1CCN(S(=O)(=O)c2ccc(F)c(C(=O)Nc3cc(C)cc(C)c3)c2)CC1 > 76.9 µM
c1ccc(-n2cccc2CNC2CCCCC2)cc1 > 76.9 µM
Cn1nc(-c2ccc(OCC(=O)NCC3CCCO3)cc2)c2ccccc2c1=O (stereo not drawn) > 76.9 µM
CCOC(=O)Cc1cc(=O)n2[nH]c(C)cc2n1 > 76.9 µM
CCOC(=O)CNc1nc(C(C)(C)C)nc2c1nnn2Cc1ccccc1Cl > 76.9 µM
N#Cc1ccc(CN2CCN(C(=O)c3ccccc3)CC2)c(Cl)c1 > 76.9 µM
COc1ccc(/C=N/c2nc3ccccc3n2C)cc1OC > 76.9 µM
Cn1c(CCN2CCCCCC2)nc2cc(NC(=O)Nc3ccccc3)ccc21 > 76.9 µM
O=c1nc(N(c2ccccc2)c2ccccc2)[nH]c(=O)[nH]1 > 76.9 µM
C/C(Cl)=C\Cn1c(Nc2ccc(C)cc2)nc2c1c(=O)n(C)c(=O)n2C > 76.9 µM
CN(Cc1ccccc1)C(=O)CSc1nnc(-c2ccco2)n1-c1ccccc1 > 76.9 µM
CCSc1nnc(CNc2ccc(F)cc2)n1CC1CCCO1 (stereo not drawn) > 76.9 µM
O=S(=O)(Cc1ccccc1Cl)Nc1ccccn1 > 76.9 µM
CCOC(=O)C1=C(C)Nc2nc3ccccc3n2C1c1ccncc1 (stereo not drawn) > 76.9 µM
Cc1nnc(SCC(N)=O)n1CC1CCCO1 (stereo not drawn) > 76.9 µM
N#Cc1cc2c(nc1SCC(=O)N1CCCCC1)CCCCC2 > 76.9 µM
O=C(NCCN1CCOCC1)C1CCC(=O)N1Cc1ccccc1Cl (stereo not drawn) > 76.9 µM
COCCn1nnnc1C(CC(C)C)N1CCN(C(=O)c2ccco2)CC1 (stereo not drawn) > 76.9 µM
OC1CC(c2ccco2)NC2(CCCCC2)C1 (stereo not drawn) > 76.9 µM
CCNC(=O)CC1C(=O)N(c2ccccc2)C(=O)N1Cc1ccc(OC)cc1 (stereo not drawn) > 76.9 µM
CCOC(=O)c1cnn(-c2nc(SC)nc3sc4c(c23)CCC4)c1N > 76.9 µM
CCc1ccc(-c2nc(CN3CCC(C(=O)N4CCN(c5ccccc5)CC4)CC3)c(C)o2)cc1 > 76.9 µM
Cc1cc(-c2ccccc2C(=O)NCc2ccccc2)on1 > 76.9 µM
COC(=O)c1cc(NC(=O)CC2SCCNC2=O)cc(C(=O)OC)c1 (stereo not drawn) > 76.9 µM
O=C(CSc1nnnn1-c1ccc2c(c1)CCC2)NCc1cccs1 > 76.9 µM
O=C1c2[nH]nc(-c3ccccc3O)c2C(c2ccc(F)cc2)N1CC1CCCO1 (stereo not drawn)
COc1ccc(C(CNC(=O)c2ccc(S(=O)(=O)N3CCOCC3)cc2)N2CCCCC2)cc1 (stereo not drawn) > 76.9 µM
CC1=C(C(=O)Nc2ccccn2)C(c2ccc(F)cc2)n2ncnc2N1 (stereo not drawn) > 76.9 µM
CCOC(=O)c1c(C)nc2sccn12 > 76.9 µM
O=C(c1n[nH]c(=O)c2ccccc12)N1CCOCC1 > 76.9 µM
CCOc1ccc(-c2nnn(CC(=O)Nc3cccc(OC)c3)n2)cc1OCC > 76.9 µM
CC(C)CNS(=O)(=O)c1ccc(CCC(=O)NCc2ccco2)cc1 > 76.9 µM
CCOC(=O)C1CCN(C(=O)CC(C)c2ccccc2)CC1 (stereo not drawn) > 76.9 µM
N#Cc1nc(-c2ccc(Cl)cc2)oc1NCCc1ccccn1 > 76.9 µM
O=C(NS(=O)(=O)c1ccccc1)c1ccccc1O > 76.9 µM
O=C(Nn1cnc2ccccc2c1=O)c1ccc(F)cc1Cl > 76.9 µM
COc1ccc(OC)c(N(CC(=O)Nc2ccccc2)S(C)(=O)=O)c1 > 76.9 µM
CCC(C)(C)NC(=O)C(c1cccn1C)N(Cc1ccc(C)cc1)C(=O)Cn1nnc2ccccc21 (stereo not drawn) > 76.9 µM
CN(C)C(=O)Nc1ccc(F)cc1F > 76.9 µM
CCOC(=O)C1CCN(c2cc(C)nc3cc(-c4cccc(F)c4)nn23)CC1 > 76.9 µM
